Measured values: publication PMC2682458 (Journal of molecular biology, 2009)

Target: ubiquitin-aldehyde (Ubal) (UniProt P0CG48 partial chain, C-terminal aldehyde)
Assay: native gel or EMSA

binding result	Binder
binds	hOtu1 C23A (enzyme) not shown
binds	hOtu1 C212A (enzyme) not shown
